PubChem BioAssay AID1460 (National Center for Advancing Translational Sciences (NCATS), 2008)
Among all 270,000 compounds or so, about 5,800 (2.1%) were called active. The inconclusive results got no clear call from the source; some entries with a clear call stand among them for comparison. Calls come from the whole dose curve; as a rule, active = well fitted inhibition curve with a large enough effect; inconclusive = small, poorly fitted or top-dose-only effect; inactive = flat fitted curve, though single readings scatter. Where the call is inconclusive, the potency comes from a doubtful curve fit.

These compounds were tested against Microtubule-associated protein tau (Homo sapiens) (UniProt P10636) (assay: qHTS for Inhibitors of Tau Fibril Formation, Thioflavin T Binding). Details: recombinant tau K18 P301L (four-repeat tau fragment), heparin-induced fibrillization, ThT fluorescence; series mostly up to 57.4 µM; activity, negative = inhibition: at the top concentration.
Outline: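 Aggregation was driven by heparin (20 uM final) acting on recombinant tau […] bearing P301L in 100 mM sodium acetate pH 7; fibrils were detected with Thioflavin T.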
% is set by controls: 0 for no effect and ±100 for the full control effect; potency is the fitted concentration of half-maximal effect; tags give direction and shape of the fitted curve.
Note: nearly all actives have a fitted effect of over 55% in size.

Chain of UniProt P10636 (P10636 whole entry, looked up, the tested form may be a part): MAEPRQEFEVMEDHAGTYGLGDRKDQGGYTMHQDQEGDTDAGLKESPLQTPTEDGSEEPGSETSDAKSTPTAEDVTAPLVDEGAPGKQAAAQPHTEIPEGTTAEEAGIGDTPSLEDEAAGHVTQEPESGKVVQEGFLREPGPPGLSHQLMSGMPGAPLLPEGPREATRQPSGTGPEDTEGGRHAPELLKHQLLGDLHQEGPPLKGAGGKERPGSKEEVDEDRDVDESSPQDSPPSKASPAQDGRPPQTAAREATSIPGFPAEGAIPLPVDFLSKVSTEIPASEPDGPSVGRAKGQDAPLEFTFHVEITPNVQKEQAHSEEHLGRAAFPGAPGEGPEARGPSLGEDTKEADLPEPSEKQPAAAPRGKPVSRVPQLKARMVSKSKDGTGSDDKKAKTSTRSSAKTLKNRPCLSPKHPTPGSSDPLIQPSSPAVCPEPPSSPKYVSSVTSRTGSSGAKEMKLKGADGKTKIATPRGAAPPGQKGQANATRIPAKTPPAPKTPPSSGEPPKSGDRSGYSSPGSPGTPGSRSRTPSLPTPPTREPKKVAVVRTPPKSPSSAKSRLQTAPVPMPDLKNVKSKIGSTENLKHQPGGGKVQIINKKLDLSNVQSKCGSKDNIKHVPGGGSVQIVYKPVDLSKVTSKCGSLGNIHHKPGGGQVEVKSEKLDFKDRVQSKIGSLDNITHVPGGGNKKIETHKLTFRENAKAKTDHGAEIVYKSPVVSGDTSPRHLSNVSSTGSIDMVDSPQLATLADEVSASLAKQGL

SMILES	Potency	activity, negative = inhibition
Cc1cc(C)c2cc(CN(Cc3nnnn3C3CCCCC3)CC3CCCO3)c(=O)[nH]c2c1 (configuration not stated)	inconclusive: 44.7 µM [inhibitor, partial curve, poor fit]	–
NCC1CCC(N)C(O[C@@H]2C(O)[C@H](O[C@H]3OC(CO)C(O)C(N)C3O)[C@@H](N)C[C@H]2N)O1 (some centres not stated)	–	inactive: -4.17%
COc1ccc(OC)c(C2=NOC(C(=O)N3CCN(c4ccccc4)CC3)C2)c1 (configuration not stated)	inconclusive: 15.8 µM [inhibitor, single point]	–
CC(C)NC(=O)c1ccc(-n2c(=S)[nH]c3ccccc3c2=O)cc1	–	inactive: -1.23%
Cc1cc(Cl)ccc1OCC(=O)Nc1ccccc1N1CCOCC1	inconclusive: 12.6 µM [inhibitor, partial curve]	–
CCOC(=O)c1cnc2c(C)cccc2c1NCc1ccco1	inconclusive: 31.6 µM [inhibitor, single point]	–
COc1ccc2c(c1)sc1ncc(C(=O)NCc3ccccc3F)c(=O)n12	inconclusive: 22.4 µM [inhibitor, single point]	–
CCOC(=O)c1ccccc1NC(=O)CC1Nc2ccccc2NC1=O (configuration not stated)	inconclusive: 5.01 µM [inhibitor, partial curve]	–
Cc1cccc(-c2noc(-c3cccnc3NCc3ccc(Cl)cc3)n2)c1	–	inactive: 0.1%
CCn1c(SCC(=O)c2ccccc2)nnc1-c1cc2cc(Br)ccc2o1	inconclusive: 0.794 µM [inhibitor, full curve]	–
CC(=O)Cc1nsc(NC(=O)c2oc(-c3ccccc3Cl)cc2C)n1	inconclusive: 20 µM [inhibitor, single point]	–
Cc1ccccc1C(=O)NC(=S)Nc1sc2c(c1C#N)CCC(C)C2 (configuration not stated)	inconclusive: 15.8 µM [inhibitor, partial curve]	–
CC1(C)N=C(SCc2ccccc2Cl)c2ccccc2N1	inconclusive: 22.4 µM [inhibitor, partial curve]	–
O=C(Nc1ccccc1)c1ccc(C(=O)Nc2ccccc2)nc1	–	inactive: -4.08%
Cn1c(=O)[nH]c(=O)c2c1nc(Sc1ccccc1)n2CCc1ccccc1	–	inactive: -6.36%
CCOC(=O)c1c(NC(=O)COC(=O)Cn2c(C)nc3ccccc32)sc2c1CCCC2	inconclusive: 31.6 µM [inhibitor, single point]	–
COc1ccccc1C(=O)Nc1ccc2c3c(cccc13)CC2	inconclusive: 3.16 µM [inhibitor, full curve]	–
COc1ccc(/C=C2\SC(N3CCc4ccccc4C3)=NC2=O)cc1	inconclusive: 22.4 µM [inhibitor, partial curve]	–
CCCCC1=CC2=CC(=O)C(C)(OC(=O)CC)C(=O)C2=CN1CCCN(CC)CC (configuration not stated)	–	inactive: 1.89% [at 11.5 µM]
COc1ccc(NC(=S)/N=C(\N)Nc2nc(C)c3ccc(C)cc3n2)cc1	inconclusive: 3.16 µM [inhibitor, full curve]	–
COC(=O)c1cc(-c2ccc3c(c2)OCO3)nc2ccccc12	–	inactive: -15.4%

SMILES	Potency	activity, negative = inhibition
O=C1c2ccccc2C(=O)N1CCc1nc(-c2ccc(Cl)cc2)no1	inconclusive: 39.8 µM [inhibitor, partial curve, poor fit]	–
C#CCCOC(=O)N1C2=NC(C(=O)OC)=C(C(=O)OC)[C@@H]3Nc4ccccc4[C@]23C[C@H]1C(=O)OC	–	inactive: 0.91% [at 11.5 µM]
COc1cc(OC)c(C2CC(=O)N3CN(c4ccccc4C)CSC3=C2C#N)cc1OC (configuration not stated)	active: 28.2 µM	–
COc1cc(/C=C/C(=O)O)cc(S(=O)(=O)Nc2ccc3nc(C)sc3c2)c1OC	–	inactive: -13.5%
Cc1ccc(C(=O)Oc2ccc([N+](=O)[O-])cc2)cc1S(=O)(=O)N1CCCCCC1	inconclusive: 12.6 µM [inhibitor, single point]	–
Cc1nn(-c2ccc(N3CCCCC3)nn2)c(C)c1CCC(=O)Nc1ccc(F)cc1F	inconclusive: 20 µM [inhibitor, single point]	–
Cc1ccc(CN(C(=O)Cn2nnc3ccccc32)C(C(=O)NCc2ccco2)c2cccs2)cc1 (configuration not stated)	inconclusive: 31.6 µM [inhibitor, single point]	–
CCOC(=O)c1c(C)[nH]c(C)c1S(=O)(=O)NCC(=O)Nc1cccc(C#N)c1	–	inactive: -6.93%
COC(=O)c1ccccc1NC(=O)CSCC(=O)Nc1ccccc1OC	–	inactive: -15.8%
CCOC(=O)C1=C(C)N(c2ccc(C)c(C)c2)C(=O)/C1=C\c1ccco1	active: 28.2 µM	–
COc1cc([N+](=O)[O-])ccc1NC(=S)Nc1cccc(C(=O)O)c1	inconclusive: 31.6 µM [inhibitor, single point]	–
CCCCCc1cc(=O)oc2c(C(CCN3CCCC3)c3cc(OC)c(OC)c(OC)c3)c(OC)cc(OC)c12 (configuration not stated)	inconclusive: 12.6 µM [inhibitor, single point]	–
CCCCOc1ccc(C(=O)N/N=C/c2cn[nH]c2-c2ccc(OC)c(OC)c2)cc1	inconclusive: 17.8 µM [inhibitor, single point]	–
CSc1nnc2c3ccccc3n(CCc3ccccc3)c2n1	–	inactive: -7.44%
O=C(CCSCc1cccc(Cl)c1)N1CCN(c2ccc(Cl)cc2)CC1	inconclusive: 3.16 µM [inhibitor, full curve, poor fit]	–
CCCc1cc2c(OC(=O)CC)c(-c3ccc(C(=O)OCC)o3)c(=O)oc2cc1OC	active: 25.1 µM	–
O=C1C(=O)N(c2ccccc2)C(c2ccccc2[N+](=O)[O-])/C1=C(\O)c1ccccc1 (configuration not stated)	inconclusive: 10 µM [inhibitor, partial curve]	–
COc1ccc(OC)c(NC(=O)CSc2ccc3ccccc3c2)c1	inconclusive: 25.1 µM [inhibitor, partial curve]	–
O=C(NCc1cccnc1)c1ccc(NC(=O)c2cccc([N+](=O)[O-])c2)cc1	inconclusive: 10 µM [inhibitor, partial curve]	–
O=S(=O)(c1cccc(-c2cn3cccnc3n2)c1)N1CCOCC1	–	inactive: -1.99%
CC[C@@H]1OC(=O)[C@@H](C)[C@H](O[C@H]2C[C@@](C)(OC)[C@@H](O)[C@H](C)O2)C(C)[C@H](O[C@H]2O[C@@H](C)C[C@@H](N(C)C)[C@@H]2O)[C@@](C)(O)C[C@H](C)C(=O)[C@@H](C)[C@H](O)[C@@]1(C)O (some centres not stated)	–	inactive: -11.6%
